# Experimental data taken from PubChem BioAssay (NCATS).
# Inconclusive results are not listed. The call rests on the fitted dose curve; in most records, active means well fitted cell-killing curve with a large enough effect; inconclusive means small, poorly fitted or top-dose-only effect; inactive means no such curve, though single readings can be large or run the other way. A structure can be active in one record and inactive in another. The source holds more than one record for some entries. This is not the full list of results. An entry can have further records. Values given together are repeated measurements (runs, samples, wells, individuals or studies). A tag in brackets gives the origin of a value. Letters count within one entry.
# Experiment: qHTS of pediatric cancer cell lines to identify multiple opportunities for drug repurposing: Primary screen for Rh41 cells (AID 1347108); further: nearly all actives have a fitted effect of over 70% in size
# Settings: Rh41 rhabdomyosarcoma viability, CellTiter-Glo luminescence, 48 h; series mostly up to 46 µM
# Text: Drug repurposing or repositioning has been offered as a strategy for drug development in oncology programs. This approach has special potential for childhood cancers and other rare or orphan diseases, where the expected return on new drug development has been a disincentive to pharmaceuticals. […] In this project we exploit the poly-pharmacology of drugs to discover new indications via phenotypic screening of a panel of 19 well-characterized cell lines derived from solid tumors seen in children and adolescents. The goal is to identify approved drugs with previously unrecognized anticancer properties that has the potential to reveal new mechanisms and biological processes involved in carcinogenesis or drug resistance. We employed a titration-based paradigm (quantitative high-throughput screening or qHTS), where all compounds were tested at multiple concentrations for their effect on cell viability. Concentration-response curves (CRCs) were derived directly from the primary screen, and both potency and efficacy values were used to identify compounds with robust bioactivity profiles. We screened the NIH Chemical Genomics Center (NCGC) Pharmaceutical Collection (NPC) and Mechanism Interrogation Plate (MIPE) small molecule collections of approved and investigational compounds against these cell lines; and measured metabolically active cells after 48 hours of compound treatment as a proxy for cell viability. […] Assay Submitter: Nathalia J. Martinez, National Center for Advancing Translational Sciences, National Institutes of Health, Rockville, MD, USA; email: natalia.martinez@nih.gov Shen, M et al. Quantitative high-throughput phenotypic screening of pediatric cancer cell lines identifies multiple opportunities for drug repurposing. Oncotarget 2017 Dec 19;9(4):4758-4772. PMID 29435139.
# The cells were obtained from University of North Carolina (UNC), Pediatric Preclinical Testing Program (PPT), and Coriell Institute (CI). qHTS cell viability assay: Cells were assayed in growth media at a density of 500-1,000 cells/well. Five microliters of cells were dispensed into 1,536-well, white, solid-bottom, TC-treated plates (Greiner Bio One) using a multidrop dispenser and incubated at 37 degrees C, 5% CO2, under a humidified atmosphere for 5 hours. Twenty-three nanoliters of compounds and controls (neutral control DMSO or positive control bortezomib at final concentration of 2.3 µM) were subsequently transferred by Kalypsys pintool. For primary screens, the MIPE collection was tested at 11-point dilutions (final concentrations range from 0.78 nM to 46 µM) and the NPC collection at 8-point dilutions (final concentrations range from 0.59 nM to 46 µM). Compounds tested in follow-up screens were assayed at 11-point dilutions. Cells were incubated for 48 hours, followed by addition of 3 µL of CellTiter-Glo (Promega). After a 15 min incubation at room temperature, samples were analyzed for luminescence intensity using a ViewLux High-throughput CCD imager equipped with clear filters.
# Potency means the concentration at half of the fitted maximal effect.
row,Structure (SMILES),Potency
1,CNC1CCCN(c2c(F)cc3c(=O)c(C(=O)O)cn(C4CC4)c3c2OC)C1 (stereo not given),active: 14.8 µM [sample A] and inactive [sample B]
2,COc1ccc(C(=O)CC(=O)c2ccc(C(C)(C)C)cc2)cc1,inactive [sample A] and active: 2.35 µM [sample B]
3,CCOC(=O)[C@H](CCc1ccccc1)N[C@H]1CS[C@H](c2cccs2)CN(CC(=O)O)C1=O,active: 1.87 µM [sample A] and inactive [sample B]
4,O=c1cc(O)c(Cl)c[nH]1,active: 4.69 µM [sample A] and inactive [sample B]
5,CC1=CC(=O)c2ccccc2C1=O,inactive [sample A] and active: 23.5 µM [sample B]
6,COc1nc(N)nc2c1ncn2[C@@H]1O[C@H](CO)[C@@H](O)[C@@H]1O,active: 14.8 µM [sample A] and inactive [sample B]
7,COc1cc2c(Nc3ccc(Br)cc3F)ncnc2cc1OCC1CCN(C)CC1,active: 20.9 µM [sample A] and inactive [sample B]
8,CC(C)Cn1cnc2c(N)nc3ccccc3c21,inactive [sample A] and active: 14.8 µM [sample B]
9,COc1ccc2c(c1)c(CC(=O)OCC(=O)O)c(C)n2C(=O)c1ccc(Cl)cc1,inactive [sample A] and active: 18.7 µM [sample B]
10,Cc1nnc(NS(=O)(=O)c2ccc(N)cc2)s1,inactive [sample A] and active: 2.35 µM [sample B]
